From the supplement of paper PMC9446081 come the findings set out here.

SMILES strings stand for the structures. The campaign covered roughly 39,000 compounds. About 220 (0.56%) showed activity. Some of the results follow.
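Further: static incubation at 37 °C against the wild-type strain, values averaged over two biological replicates.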

For this test, the system named is Escherichia coli K-12 BW25113. Briefly: relative growth (OD600 normalised to plate interquartile mean) (fraction); higher = less growth inhibition, active = 0.2 or less. The following applies: 50 µM; LB; incubation time: overnight (16-24 h).
`Cl.Cl.NCCNCCNCCN`: the relative growth is inactive: 1.12. On to `C[C@H](CO)N1C[C@H](C)[C@H](CN(C)C(=O)Nc2cccc3ccccc23)Oc2ccc(NC(=O)Nc3ccccc3)cc2C1=O`, for which the relative growth was inactive: 1.04. For the compound `CC(C)NC(=O)N(C)C[C@H]1Oc2cc(C#Cc3ccc(F)cc3)ccc2S(=O)(=O)N([C@H](C)CO)C[C@@H]1C`, the relative growth was inactive: 1.07. For the compound `C[C@H]1CN([C@@H](C)CO)C(=O)c2cccc(NC(=O)c3ccc(-c4nccs4)cc3)c2O[C@@H]1CN(C)Cc1ccc(C(=O)O)cc1`, the relative growth was inactive: 1.01.

Take `COc1ccc(NC(=O)Nc2ccc3c(c2)C(=O)N([C@@H](C)CO)C[C@@H](C)[C@@H](CN(C)Cc2ccncc2)OCCCC[C@H](C)O3)cc1`: the relative growth was inactive: 0.951. As for `CCS(=O)(=O)Nc1ccc2c(c1)CC(=O)N2`, the relative growth is inactive: 1.01. The value for `COc1ccc(S(=O)(=O)Nc2ccc3c(c2)C(=O)N([C@@H](C)CO)C[C@H](C)[C@@H](CN(C)S(C)(=O)=O)OCCCC[C@@H](C)O3)cc1` was inactive: 0.986; that for `COc1ccc(NC(=O)N(C)C[C@@H]2Oc3ccc(NS(=O)(=O)c4cn(C)cn4)cc3C(=O)N([C@H](C)CO)C[C@@H]2C)cc1` was inactive: 0.96. For `Cc1noc(C)c1S(=O)(=O)N(C)C[C@H]1Oc2c(NC(=O)C3CCCCC3)cccc2C(=O)N([C@@H](C)CO)C[C@H]1C`, the relative growth was inactive: 1.01. For `C[C@H]1CN([C@@H](C)CO)C(=O)c2cc(NC(=O)Nc3ccc(F)cc3)ccc2O[C@H]1CN(C)Cc1ccc(Cl)c(Cl)c1`, the relative growth was inactive: 1.03.

`N[C@@H](CO)c1ccccc1`: the relative growth was inactive: 1.04. On to `CC1C(NC(=O)C(=NOC(C)(C)C(=O)O)c2csc(N)n2)C(=O)N1S(=O)(=O)O` (configuration not stated), for which the relative growth was active: 0.0499. The value for `COCCOC(=O)N1C(=O)[C@@]2(c3cc(C#CC4=CCCCC4)ccc31)[C@H](c1ccccc1OCCO)N1[C@H](c3ccccc3)[C@H](c3ccccc3)OC(=O)[C@H]1[C@@H]2C(=O)NC[C@H](O)c1ccccc1` was inactive: 1.08.

Consider `C[C@@H]1CCCCO[C@H](CN(C)C(=O)Cc2ccccc2)[C@@H](C)CN([C@@H](C)CO)C(=O)c2cc(NS(=O)(=O)c3ccc(Cl)cc3)ccc2O1`, for which the relative growth was inactive: 1.01.

Consider `O=C(C[C@@H]1CC[C@@H]2[C@H](COC[C@H](O)CN2S(=O)(=O)c2ccc(F)cc2)O1)NCc1ccc(Cl)c(Cl)c1`, for which the relative growth is inactive: 0.998. For the compound `C[C@@H]1CN([C@@H](C)CO)C(=O)c2cccc(NS(C)(=O)=O)c2O[C@@H]1CN(C)S(=O)(=O)c1ccc(F)cc1`, the relative growth is inactive: 1. With `COc1cccc(C(=O)Nc2ccc3c(c2)C(=O)N(C)[C@@H]2CC[C@@H](CC(=O)NCCCN4CCOCC4)O[C@@H]2CO3)c1`, the relative growth was inactive: 1.01.
